{"source": "PubChem BioAssay AID886", "about": "(National Center for Advancing Translational Sciences (NCATS), 2007)", "note": "The campaign covered roughly 73,000 compounds. About 2,500 (3.4%) were called active. Inconclusive results, whose numbers are uncertain, are shown with a selection of clear calls. Calls come from the whole dose curve; as a rule, active = well fitted inhibition curve with a large enough effect; inconclusive = small, poorly fitted or top-dose-only effect; inactive = no such curve, though single readings can be large or run the other way. Potencies of inconclusive entries are doubtful fits and often do not repeat. % is set by controls: 0 for no effect and ±100 for the full control effect; potency is the fitted concentration of half-maximal effect; tags give direction and shape of the fitted curve.", "data": [{"target": "3-hydroxyacyl-CoA dehydrogenase type-2 (Homo sapiens) (UniProt Q99714)", "assay": "qHTS Assay for Inhibitors of HADH2 (Hydroxyacyl-Coenzyme A Dehydrogenase, Type II); note: nearly all actives have a fitted effect of over 60% in size", "conditions": "recombinant HADH2, NADH fluorescence, beta-hydroxybutyryl-CoA; activity change, negative = inhibition: at 57.1 µM (top of the series)", "summary_of_the_method": "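20 nM HADH2 + cpd, 15 min RT; add 1 mM NAD+/90 uM beta-hydroxybutyryl-CoA; kinetic fluorescence 360/450 nm, 4 min. Tris-HCl pH 9.0, 0.01% Tween-20.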", "values": [{"smiles": "CCOC(=O)C1CCN(C(=O)c2cn(C)c(=O)c3cc(OC)c(OC)cc23)CC1", "Potency": "inconclusive: 0.0501 µM [inhibitor, full curve]"}, {"smiles": "CC(=O)Nc1ccc(S(=O)(=O)NCC2CCC(C(=O)NCCC(C)C)CC2)cc1", "note": "(stereo unspecified)", "activity change, negative = inhibition": "inactive: 6.92%"}, {"smiles": "CCOC(=O)N1CCN(C(=O)c2cn(CCOC)c(=O)c3c2c2ccccc2n3C)CC1", "Potency": "inconclusive: 39.8 µM [inhibitor, single point]"}, {"smiles": "COc1ccc(-c2ccc(-c3noc(-c4cccs4)n3)c(OC)n2)cc1", "Potency": "inconclusive: 0.631 µM [inhibitor, full curve]"}, {"smiles": "CCOC(=O)c1cnc2c(C(F)(F)F)cccc2c1N1CCOCC1", "Potency": "inconclusive: 20 µM [inhibitor, partial curve]"}, {"smiles": "S=C1N[C@H](c2ccccc2)N[C@H](c2ccccc2)S1", "Potency": "inconclusive: 3.16 µM [inhibitor, partial curve]"}, {"smiles": "Cn1nnnc1SCC(=O)Nc1ccccc1N1CCCCC1", "Potency": "inconclusive: 25.1 µM [inhibitor, single point]"}, {"smiles": "COC(=O)c1sccc1NC(=O)c1cccnc1", "activity change, negative = inhibition": "inactive: -1.3%"}, {"smiles": "COc1ccc(N2CCN(C(=O)CSc3ncccc3-c3nc4ccccc4[nH]3)CC2)cc1", "activity change, negative = inhibition": "inactive: -14%"}, {"smiles": "COc1ccc(-c2nnc3sc(-c4cccs4)nn23)cc1OC", "activity change, negative = inhibition": "inactive: -8.02%"}, {"smiles": "CCOc1ccccc1N1CSC2=C(C#N)C(c3c(OC)ccc4ccccc34)CC(=O)N2C1", "note": "(stereo unspecified)", "Potency": "active: 0.631 µM"}, {"smiles": "COc1ccccc1CNC(=O)C(C)NS(=O)(=O)c1ccc(C)cc1", "note": "(stereo unspecified)", "Potency": "inconclusive: 2 µM [inhibitor, partial curve, poor fit]"}, {"smiles": "O=C(Cc1ccccc1)N1CCCC1c1ccccc1", "note": "(stereo unspecified)", "activity change, negative = inhibition": "inactive: -0.828% [at 11.4 µM]"}, {"smiles": "Cc1cc(C)n(-c2nc3ccccc3[nH]c2=O)n1", "Potency": "active: 20 µM"}, {"smiles": "COc1ccc(OC)c(NC(=O)C23CCC(C)(C(=O)C2)C3(C)C)c1", "note": "(stereo unspecified)", "Potency": "inconclusive: 1.26 µM [inhibitor, partial curve]"}, {"smiles": "COc1ccccc1CN1CCC2(CC1)CCN(S(C)(=O)=O)CC2", "activity change, negative = inhibition": "inactive: 2.26%"}, {"smiles": "COc1ccc(CC(=O)Nc2ccc(-c3nnc(-c4ccc(C)cc4)o3)cc2)cc1", "Potency": "active: 0.251 µM"}, {"smiles": "COCCC(=O)N(Cc1ccc2c(c1)OCO2)C(C(=O)NC1CCCCC1)c1ccncc1", "note": "(stereo unspecified)", "Potency": "inconclusive: 20 µM [inhibitor, partial curve]"}, {"smiles": "COC(=O)CSc1cc(SCC(=O)OC)c(C#N)c(SCC(=O)OC)c1", "Potency": "inconclusive: 15.8 µM [inhibitor, partial curve]"}, {"smiles": "Oc1ccc(N2CCN(c3ncnc4sc5c(c34)CCC5)CC2)cc1", "Potency": "active: 12.6 µM"}, {"smiles": "CC(=O)O[C@H]1C[C@H]2CC[C@@H]3[C@@H](CC[C@]4(C)[C@H](OC(C)=O)[C@H]([N+]5(C)CCCCC5)C[C@@H]34)[C@]2(C)C[C@H]1[N+]1(C)CCCCC1", "activity change, negative = inhibition": "inactive: -8.78% [at 25.6 µM]"}, {"smiles": "S=C(Nc1ccccn1)c1ccccn1", "Potency": "active: 6.31 µM"}, {"smiles": "Cc1ccc2c(C)nc(Nc3nc(CSc4nnnn4-c4ccccc4)cc(=O)[nH]3)nc2c1", "activity change, negative = inhibition": "inactive: 3.93%"}, {"smiles": "Cn1c(SCC(=O)c2ccccc2)nc2cccnc21", "Potency": "inconclusive: 39.8 µM [inhibitor, single point]"}, {"smiles": "COc1ccc(OC)c(S(=O)(=O)Nc2ccc(O)c3ccccc23)c1", "Potency": "active: 2 µM"}, {"smiles": "c1c[nH]cn1", "activity change, negative = inhibition": "inactive: 7.22%"}, {"smiles": "Cn1cccc1C(=O)N1CCC2(CCCN(c3ccncc3)C2)CC1", "activity change, negative = inhibition": "inactive: 0.374%"}, {"smiles": "COc1cccc2cc(C(=O)N3CCN(c4ncccn4)CC3)c(=O)oc12", "Potency": "inconclusive: 31.6 µM [inhibitor, single point]"}, {"smiles": "COc1ccccc1NC(=O)c1cc2ccc(O)cc2o/c1=N\\O", "Potency": "inconclusive: 15.8 µM [inhibitor, partial curve]"}, {"smiles": "N=C1Sc2ccccc2C2=NCCCN12", "Potency": "inconclusive: 0.794 µM [inhibitor, full curve]"}, {"smiles": "c1ccc(-c2noc(-c3cccc4ccccc34)n2)nc1", "Potency": "inconclusive: 12.6 µM [inhibitor, partial curve]"}, {"smiles": "Cc1nc2cnc(Oc3ccccc3)nc2n(Cc2cccs2)c1=O", "activity change, negative = inhibition": "inactive: 9.53%"}, {"smiles": "CCN1/C(=C\\C(C)=O)Sc2ccc(OC)cc21", "Potency": "inconclusive: 25.1 µM [inhibitor, single point]"}, {"smiles": "CCOC(=O)c1cc(-c2nnc(SCC(=O)Nc3ccc(F)cc3)o2)c(C)nc1C", "Potency": "inconclusive: 1.26 µM [inhibitor, partial curve]"}, {"smiles": "CCc1cc(=O)oc2cc(OC(C)C(=O)O)c(Cl)cc12", "note": "(stereo unspecified)", "Potency": "inconclusive: 3.16 µM [inhibitor, partial curve]"}, {"smiles": "O=C(NCCN1CCOCC1)c1ccc2c(c1)N(Cc1ccccc1)CCS2", "Potency": "inconclusive: 31.6 µM [inhibitor, single point]"}, {"smiles": "CCCOc1ccc(C(=O)N2CCCC2)cc1OC", "Potency": "inconclusive: 39.8 µM [inhibitor, single point]"}, {"smiles": "Oc1ccc(C(c2nnnn2C2CCCC2)N2CCc3ccccc3C2)cc1", "note": "(stereo unspecified)", "Potency": "inconclusive: 39.8 µM [inhibitor, single point]"}, {"smiles": "CC1=C(C(=O)N2CCOCC2)C(c2ccccc2F)C2=C(CCCC2=O)N1", "note": "(stereo unspecified)", "Potency": "active: 25.1 µM"}, {"smiles": "CC(Nc1n[nH]c(=S)[nH]c1=O)C(=O)OCc1ccccc1", "note": "(stereo unspecified)", "Potency": "inconclusive: 31.6 µM [inhibitor, partial curve]"}, {"smiles": "N#Cc1nc(-c2ccccc2F)oc1NC1CCCCC1", "Potency": "active: 31.6 µM"}, {"smiles": "Cc1ccc2c(c1)C1C=CCC1C(C(=O)O)N2", "note": "(stereo unspecified)", "Potency": "active: 12.6 µM"}, {"smiles": "N=C(N)c1ccc(/C=C\\c2ccc(C(=N)N)cc2)cc1", "Potency": "inconclusive: 5.01 µM [inhibitor, single point]"}, {"smiles": "Nc1ccc(-n2c(N)c(C(=O)NCc3ccc4c(c3)OCO4)c3nc4ccccc4nc32)cc1", "activity change, negative = inhibition": "inactive: -12.4%"}, {"smiles": "C=CCn1c(=O)c(C(=O)Nc2ccccc2C(=O)OCC)c(O)c2ccccc21", "Potency": "active: 25.1 µM"}, {"smiles": "CCc1ccc(O)c(N=Cc2ccccc2O)c1", "Potency": "inconclusive: 2.51 µM [inhibitor, full curve]"}, {"smiles": "COc1ccc(CNC(=O)c2c(O)c3cccc4c3n(c2=O)CCC4)cc1", "activity change, negative = inhibition": "inactive: 5.69%"}, {"smiles": "Cc1ccsc1C(=O)OCc1csc(-c2ccccc2)n1", "Potency": "inconclusive: 15.8 µM [inhibitor, partial curve]"}, {"smiles": "COc1ccccc1-c1cc(C2CC2)nc(N)c1C#N", "Potency": "inconclusive: 39.8 µM [inhibitor, single point]"}, {"smiles": "CC(C)OCCCNC(=O)C1CCC(=O)N1C(C)C", "note": "(stereo unspecified)", "Potency": "inconclusive: 31.6 µM [inhibitor, single point]"}, {"smiles": "CNC(=O)c1cc2c(cn1)[nH]c1ccccc12", "Potency": "inconclusive: 39.8 µM [inhibitor, single point]"}, {"smiles": "Cc1cc(=O)oc2cc(O)ccc12", "Potency": "active: 2.51 µM"}, {"smiles": "COCCCn1c(=N)c(C(=O)NCC2CCCO2)cc2c(=O)n3cccc(C)c3nc21", "note": "(stereo unspecified)", "Potency": "active: 31.6 µM"}, {"smiles": "COCC(=O)N(C)c1nnc(-c2cnc(C)cn2)s1", "Potency": "inconclusive: 25.1 µM [inhibitor, single point]"}, {"smiles": "O=C1CC(N2CCC(O)(c3ccc(Cl)cc3)CC2)C(=O)N1Cc1ccc(N2CCCC2=O)cc1", "note": "(stereo unspecified)", "activity change, negative = inhibition": "inactive: 15.1%"}, {"smiles": "CC1CCCN(c2nc3c(c(=O)[nH]c(=O)n3C)n2CCCc2ccccc2)C1", "note": "(stereo unspecified)", "activity change, negative = inhibition": "inactive: -9.09%"}, {"smiles": "COCCSc1ccccc1C(=O)N1CCN(Cc2ccc3c(c2)OCO3)CC1", "Potency": "inconclusive: 25.1 µM [inhibitor, single point]"}, {"smiles": "Oc1cc(O)cc(/C=C\\c2ccc(O)c(O)c2)c1", "Potency": "active: 2 µM"}, {"smiles": "Cc1cc(C)n(-c2nnc(C)c(=O)[nH]2)n1", "activity change, negative = inhibition": "inactive: 9.68% [at 11.4 µM]"}, {"smiles": "COC(=O)c1ccc(C(NC(=O)OCc2ccccc2)/C(I)=C/[C@@H](C)C(=O)NCc2ccc(C)o2)cc1", "note": "(stereo partly specified)", "Potency": "inconclusive: 39.8 µM [inhibitor, single point]"}, {"smiles": "C(=N\\n1cnnc1)/c1ccc2c(c1)OCO2", "Potency": "inconclusive: 39.8 µM [inhibitor, single point]"}, {"smiles": "O=C(Nc1cccc(S(=O)(=O)C(F)F)c1)c1ccc(Cl)c(S(=O)(=O)N2CCOCC2)c1", "activity change, negative = inhibition": "inactive: -1.65%"}, {"smiles": "Cc1ccc(-c2cnc(-c3ccncc3)o2)cc1", "Potency": "active: 1.58 µM"}, {"smiles": "COCCn1c(=O)c(-c2cccs2)nc2cnc(OC)nc21", "Potency": "active: 2 µM"}, {"smiles": "CC(=O)Nc1ccc(C2Nc3ccccc3C(=O)N2C2CCCCC2)cc1", "note": "(stereo unspecified)", "Potency": "active: 3.16 µM"}, {"smiles": "O=C1CCCc2c1nn(-c1ccccc1)[n+]2[O-]", "activity change, negative = inhibition": "inactive: -0.897%"}, {"smiles": "COc1ccc(C2C(C#N)=C(C)NC3=C2C(=O)CC(C)(C)C3)c(OC)c1", "note": "(stereo unspecified)", "Potency": "inconclusive: 31.6 µM [inhibitor, single point]"}, {"smiles": "Nc1cc(CN2C(=O)c3ccccc3C2=O)cc(Cl)c1O", "Potency": "inconclusive: 15.8 µM [inhibitor, partial curve]"}, {"smiles": "Cc1[nH]nc2c1C(c1ccc(OC(=O)c3ccco3)cc1)C(C#N)=C(N)O2", "note": "(stereo unspecified)", "Potency": "inconclusive: 12.6 µM [inhibitor, partial curve]"}, {"smiles": "COC(=O)C1=CN(CC2CCCO2)C=C(C(=O)OC)C1c1cc(OC)c(OC)c(OC)c1", "note": "(stereo unspecified)", "Potency": "active: 25.1 µM"}, {"smiles": "COCC(=O)N1CCC2(CCN(Cc3ccc(C#N)cc3)CC2)CC1", "activity change, negative = inhibition": "inactive: -4.96%"}, {"smiles": "Cc1ccc(C(=O)Nc2nnc(-c3ccncc3)s2)o1", "Potency": "inconclusive: 7.94 µM [inhibitor, single point]"}, {"smiles": "Cc1cc(=O)[nH]c(SCC(=O)Nc2ccc(S(=O)(=O)N3CCCCC3)cc2)n1", "Potency": "inconclusive: 7.94 µM [inhibitor, single point]"}, {"smiles": "Cc1cccc(C)c1OCCCCc1c(C)n[nH]c1C", "Potency": "inconclusive: 31.6 µM [inhibitor, single point]"}, {"smiles": "COc1ccc(C(=O)Nn2cnc3scc(-c4cccs4)c3c2=O)c(O)c1", "activity change, negative = inhibition": "inactive: -14.3%"}, {"smiles": "CCCS(=O)(=O)c1c(S(=O)(=O)CCC)c2c(N)cccn2c1C(=O)c1ccc(F)cc1", "Potency": "inconclusive: 25.1 µM [inhibitor, single point]"}]}]}
